# Laboratory results from the BET-seq Pho4 binding data (Le et al. 2018).
# This is one part of the list. Values were computed here from the reads of four pooled replicates and scatter widely.
# Molecular target: T1, Pho4 (S. cerevisiae) (UniProt P07270)
# T1 sequence: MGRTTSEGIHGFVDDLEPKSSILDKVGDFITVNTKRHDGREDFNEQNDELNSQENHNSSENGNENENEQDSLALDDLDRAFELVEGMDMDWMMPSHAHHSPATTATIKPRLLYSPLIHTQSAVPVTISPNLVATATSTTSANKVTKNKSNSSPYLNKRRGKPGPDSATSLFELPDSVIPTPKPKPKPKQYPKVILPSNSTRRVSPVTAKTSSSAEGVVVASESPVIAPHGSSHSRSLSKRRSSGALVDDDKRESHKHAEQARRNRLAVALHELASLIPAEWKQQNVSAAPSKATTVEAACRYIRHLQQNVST
# Assay: relative binding free energy (BET-seq); higher = weaker binding
# Settings: reference: library average
row,Sequence,relative binding free energy [kcal/mol]
1,ACGTTCACGTGATGGT,0.19
2,GTTGCCACGTGGTGGT,-0.14
3,ACGTACACGTGGTAGT,-0.06
4,CTGTTCACGTGTGCTT,0.25
5,TAACGCACGTGGTGGG,-0.2
6,GGGGACACGTGTTGGC,0.04
7,CGACTCACGTGGGCGG,0.16
8,AAATTCACGTGAGTGT,0.43
9,AATCGCACGTGGGGGA,-0.19
10,TGTTTCACGTGCAGAT,0.27
11,TTTAGCACGTGGGCAT,-0.22
12,TTTCGCACGTGAGATT,0.23
13,TGGAGCACGTGGGGCG,-0.2
14,TCGGGCACGTGGACGT,-0.15
15,ACTGGCACGTGGTTGA,-0.14
16,CAGGGCACGTGATAGT,-0.08
17,TGGATCACGTGTTTAC,0.1
18,TGTGTCACGTGATGGC,0.3
19,TCAGGCACGTGGGAAA,0.05
20,GGTTCCACGTGAATGG,0.33
21,AATGGCACGTGAAGAT,0.28
22,TTAAACACGTGTGCGT,0.03
23,GGAGGCACGTGTTGGC,-0.01

row,Sequence,relative binding free energy [kcal/mol]
1,TTAAGCACGTGTTAGC,-0.01
2,TTACGCACGTGTTATG,-0.16
3,CGTATCACGTGGGGTC,0.02
4,TATCACACGTGGTGTG,-0.07
5,CAGGGCACGTGGGAAA,-0.17
6,TAGTGCACGTGTATCG,0.05
7,GTAGTCACGTGAAATG,0.24
8,TGTTGCACGTGAAAAT,0.31
9,GGTTTCACGTGACGGT,0.22
10,GGAGACACGTGCTTGG,-0.01
11,TTCTGCACGTGGTTCG,-0.02
12,ATAGTCACGTGGGATA,0.14
13,CGGGGCACGTGGCGGA,-0.2
14,TATGGCACGTGTTTAA,-0.04
15,TTGTCCACGTGCTGTG,-0.14
16,TAAGCCACGTGGTGGG,-0.25
17,TGGGTCACGTGGCGCC,0.16
18,GTTTTCACGTGTATCT,0.31
19,GGAATCACGTGAGGCT,0.3
20,CTTATCACGTGTGGTT,0.25
21,GGCTGCACGTGGCTGG,0.02
22,CGAAGCACGTGAGGTT,0.22
23,TTTTACACGTGTGACG,0.24

row,Sequence,relative binding free energy [kcal/mol]
1,AGTGTCACGTGTAGAA,-0.08
2,AGTGTCACGTGCTGTG,-0.01
3,TGTTACACGTGGTGAG,0.04
4,ATGTGCACGTGGTGCG,-0.19
5,ATTATCACGTGAAAAG,0.55
6,CGTAGCACGTGTTGTT,-0.09
7,GTTACCACGTGTGTTA,0.08
8,TGTATCACGTGATACT,0.23
9,GTGTGCACGTGGGGTT,-0.05
10,TAGTTCACGTGGGGGC,0.2
11,TTGTGCACGTGCTCGG,-0.1
12,CGTATCACGTGCTGTT,0.11
13,TATAACACGTGATGTG,0.08
14,CGTTCCACGTGGTGTT,-0.01
15,TGGCTCACGTGCTGGG,0.06
16,TGCGTCACGTGGGGCA,-0.1
17,GGTGGCACGTGATCGT,0.01
18,TCTCTCACGTGAGGGG,0.45
19,AGTTTCACGTGTATTT,0.33
20,TTAGTCACGTGTTAGA,0.19
21,GGAGTCACGTGAGGGC,0.36
22,TTCGTCACGTGTGAAG,0.11
23,ATTAACACGTGAGTTT,0.3

row,Sequence,relative binding free energy [kcal/mol]
1,TTCGTCACGTGGGAGA,-0.1
2,AGTAACACGTGGGCGA,-0.05
3,AGAGTCACGTGCTGTG,0.07
4,GTCTTCACGTGGATTA,0.27
5,GACTGCACGTGTGTAG,-0.02
6,GGGAGCACGTGCGTTA,-0.06
7,GGATGCACGTGGGGAC,-0.1
8,GGGCACACGTGTATGG,0.12
9,GGAATCACGTGCGGGG,0.04
10,TCTTACACGTGTTGTG,0.02
11,GGGGTCACGTGCAGAG,0.12
12,TCGGACACGTGTTGTA,0.11
13,GATCTCACGTGGGTGG,0.16
14,TAGGACACGTGAGGGG,0.24
15,TTTGGCACGTGAGACG,-0.05
16,AGGAGCACGTGCTGGG,-0.01
17,ATTTGCACGTGAAGTT,0.34
18,GGTAACACGTGTAATG,0.1
19,TGTTTCACGTGCGATA,0.2
20,AGAGACACGTGGAGTT,0.09
21,CGGATCACGTGAGAGT,0.35
22,ATTGTCACGTGTTCGA,0
23,CACGGCACGTGTGTTT,-0.05

row,Sequence,relative binding free energy [kcal/mol]
1,ATTGTCACGTGATGCT,0.17
2,TTTGTCACGTGTATTG,0.07
3,TTAAGCACGTGTACTT,-0.01
4,CAGATCACGTGAAGGG,0.36
5,TAGTGCACGTGCATGG,-0.08
6,CAGTGCACGTGGAGTA,-0.05
7,AAGTGCACGTGGGTGT,-0.2
8,TCGTTCACGTGGAGAT,0.29
9,GAAAGCACGTGGTCGT,-0.09
10,CAGCGCACGTGTGGGG,-0.13
11,TCTTTCACGTGAGTCG,0.51
12,GCATGCACGTGGTTGT,-0.1
13,TGTAACACGTGGTTTC,-0.05
14,ATTAGCACGTGTTGGT,0
15,TTATACACGTGAGGTT,0.24
16,AAATTCACGTGTTATA,0.17
17,TTCGACACGTGAGGAG,0.23
18,TCGATCACGTGGGTAT,-0.04
19,ATTGGCACGTGCCTGG,-0.17
20,AGGGTCACGTGTACGG,0.01
21,TGGGTCACGTGTGTTT,0.21
22,TAAGACACGTGAAAGT,0.27
23,CTTGTCACGTGTAGGC,0.25

row,Sequence,relative binding free energy [kcal/mol]
1,ACTGGCACGTGAGGCG,0.15
2,CATTGCACGTGTAGGG,0.06
3,ATTTTCACGTGTCCGG,0.16
4,TCTGGCACGTGGGCAG,-0.23
5,TTTCGCACGTGGGTCA,-0.2
6,TAGTGCACGTGGGCCT,-0.29
7,TTTGCCACGTGGGGCA,-0.25
8,AGAGCCACGTGTTGTA,-0.04
9,ACTCGCACGTGGGGGG,-0.3
10,AGCTACACGTGTTTGG,-0.02
11,TATTTCACGTGTTTAG,0.36
12,AGGTGCACGTGGGTGA,-0.22
13,TCGGGCACGTGGTTGC,-0.04
14,CTATGCACGTGATTAG,0.11
15,GAATTCACGTGTTGGA,0.32
16,CTGTCCACGTGGTGGA,-0.03
17,AGGTCCACGTGAGTAT,0.3
18,GGTTTCACGTGAGGTT,0.38
19,ATATTCACGTGGGGGG,0.14
20,TCTTACACGTGAAGGT,0.37
